# Assay results taken from PubChem BioAssay AID2147 (National Center for Advancing Translational Sciences (NCATS), 2009).
# Out of some 230,000 compounds screened, about 3,600 (1.6%) were called active. The inconclusive results got no clear call from the source; some entries with a clear call stand among them for comparison. The call rests on the fitted dose curve; in most records, active means well fitted inhibition curve with a large enough effect (not every such curve was filed as active); inconclusive means small, poorly fitted or top-dose-only effect, or another doubt; inactive means no such curve, though single readings can be large or run the other way. Where the call is inconclusive, the potency comes from a doubtful curve fit.
# Biological target: Lysine-specific demethylase 4E (Homo sapiens) (UniProt B2RXH2)
# Chain of UniProt B2RXH2 (B2RXH2 whole entry, looked up, the tested form may be a part): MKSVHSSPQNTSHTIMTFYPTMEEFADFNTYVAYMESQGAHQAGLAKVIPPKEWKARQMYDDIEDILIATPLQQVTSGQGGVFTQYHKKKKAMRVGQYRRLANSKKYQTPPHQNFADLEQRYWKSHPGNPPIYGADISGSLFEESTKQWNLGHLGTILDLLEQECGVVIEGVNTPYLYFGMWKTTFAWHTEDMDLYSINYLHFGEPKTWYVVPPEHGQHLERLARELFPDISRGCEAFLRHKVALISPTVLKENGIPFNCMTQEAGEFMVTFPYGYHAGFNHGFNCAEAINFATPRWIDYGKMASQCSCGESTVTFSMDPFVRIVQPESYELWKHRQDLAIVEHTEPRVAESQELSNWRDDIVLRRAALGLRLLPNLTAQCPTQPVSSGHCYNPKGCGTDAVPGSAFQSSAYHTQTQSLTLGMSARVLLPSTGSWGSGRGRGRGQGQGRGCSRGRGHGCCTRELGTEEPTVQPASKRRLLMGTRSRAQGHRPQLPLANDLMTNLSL
# Assay: qHTS Assay for Inhibitors of Human Jumonji Domain Containing 2E (JMJD2E)
# Settings: JMJD2E catalytic domain, FDH-coupled NADH fluorescence (FDH is formaldehyde dehydrogenase); series mostly up to 57.1 µM; activity change, negative = inhibition: at the top concentration
# Further: nearly all actives have a fitted effect of over 50% in size.
# Potency means the concentration at half of the fitted maximal effect; tags describe the fitted curve by direction and shape.
# 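Wherever activity change, negative = inhibition is given: 0% = wells with enzyme and -100% = buffer wells without enzyme.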
Compound,Potency,"activity change, negative = inhibition"
Cc1ccc(C)c(NC(=S)Nc2cccnc2)c1,"inconclusive: 25.1 µM [inhibitor, single point]",
Cc1nc(S/C(=C/c2ccc(-c3ccc(C(=O)O)cc3)o2)C(=O)O)n[nH]1,,inactive: -12.8%
CC(=O)Cc1nsc(NC(=O)c2ccc(-c3cccc(C(F)(F)F)c3)o2)n1,"inconclusive: 25.1 µM [inhibitor, partial curve]",
Cc1nc2oc3c(=O)[nH]cnc3c2c2c1COC(C)(C)C2,"inconclusive: 28.2 µM [inhibitor, partial curve]",
COc1ccccc1CCNCc1ccc(OC)c(OCc2ccccc2)c1,"inconclusive: 20 µM [inhibitor, single point]",
CCCc1c(C(=O)Nc2ccc(N3CCOCC3)cc2)cnn1-c1ccccc1,,inactive: -13.5%
N#Cc1c(NCc2ccccc2)ccnc1NCc1cccnc1,,inactive: 1.09%
CCC(C)NC(=O)C1CCC(=O)N(c2ccc3c(c2)OCO3)C1c1ccc(OC)cc1 (configuration not stated),,inactive: -6.64%
O=c1cc(N2CCN(Cc3ccccc3)CC2)[nH]c(=O)n1-c1ccc(Br)cc1,"inconclusive: 28.2 µM [inhibitor, single point]",
CN1CCN(CCCNC(=O)c2ccc(/C=C3/Sc4ccccc4N(Cc4cccc(Cl)c4)C3=O)cc2)CC1,"inconclusive: 28.2 µM [inhibitor, single point]",
CC1(C)CC(N=C2C([N+](=O)[O-])=CC=C3C2=NC2(CCCCC2)N3O)CC(C)(C)N1,"inconclusive: 3.55 µM [inhibitor, full curve]",
CC(=O)Nc1nn(C)c2nc3cc(C)ccc3cc12,"inconclusive: 39.8 µM [inhibitor, single point]",
O=c1c2c(-c3ccco3)csc2nc(SCc2cn3cccnc3n2)n1-c1ccccc1,"inconclusive: 28.2 µM [inhibitor, partial curve]",
COC1=C/C(=C/c2c(N)n3c(nc2=O)sc2cc(S(C)(=O)=O)ccc23)C=CC1=O,,inactive: -14%
Cc1c(Cc2ccccc2)sc(/N=C/c2c(O)ccc3ccccc23)c1C(N)=O,"inconclusive: 31.6 µM [inhibitor, partial curve]",
Brc1ccc(-c2cn3c(n2)SCC3)cc1,,inactive: -4.37%
CC(=O)Nc1ccc2nc(NS(=O)(=O)c3ccc(C)cc3)sc2c1,,inactive: -1.02%
CC(=O)Oc1ccc(C(=O)O)cc1OC(C)=O,"inconclusive: 35.5 µM [inhibitor, single point]",
CCOc1ccc(N=Nc2c(=O)[nH]n3c(=O)c4c([nH]c23)CCCC4)cc1,"inconclusive: 39.8 µM [inhibitor, single point]",
Cc1sc2nc3n(c(=O)c2c1C)Cc1ccccc1-3,"inconclusive: 3.16 µM [inhibitor, single point]",
O=c1c2ccccc2nc2n1CCCN2,"inconclusive: 28.2 µM [inhibitor, partial curve]",
N#CC1=C(N2CCOCC2)/C(=C\c2ccccc2)CC1,"inconclusive: 35.5 µM [inhibitor, single point]",
CC(=O)Nc1ccc(Nc2c3ccccc3nc3ccccc23)cc1,"inconclusive: 35.5 µM [inhibitor, single point]",

Compound,Potency,"activity change, negative = inhibition"
CCOC(=O)CCC(NC(=O)c1cncc(O)c1)C(=O)OCC (configuration not stated),"inconclusive: 31.6 µM [inhibitor, partial curve]",
O=C(Nc1ccc(F)cc1)c1cn(-c2ccccc2)nc1-c1ccncc1,"inconclusive: 39.8 µM [inhibitor, single point]",
O=C(NCC1CCCO1)C(c1ccc(F)cc1)N(Cc1ccc2c(c1)OCO2)C(=O)c1ccc(CN2CCOCC2)o1 (configuration not stated),,inactive: -5.08%
CC[C@H](C)[C@H](N)C1=N[C@H](C(=O)N[C@@H](CC(C)C)C(=O)N[C@@H](CCC(=O)O)C(=O)N[C@@H](C(=O)N[C@H]2CCCCNC(=O)[C@@H](CC(N)=O)NC(=O)[C@@H](CC(=O)O)NC(=O)[C@@H](Cc3cnc[nH]3)NC(=O)[C@@H](Cc3ccccc3)NC(=O)[C@@H]([C@@H](C)CC)NC(=O)[C@@H](CCCN)NC2=O)[C@@H](C)CC)CS1,,inactive: -24.4% [at 25.5 µM]
CC(C)c1ccccc1-n1c(-c2cccnc2)n[nH]c1=S,,inactive: -14.1%
O=C(Nc1ccccc1)C1=C[C@@H](c2ccc(Br)cc2)C[C@@H](OCCCCO)O1,,inactive: -6.7%
CCOc1ccc(/C=C/C(O)=C2/C(=O)N(C)C3(C)CC2c2ccccc2O3)cc1OC (configuration not stated),"inconclusive: 22.4 µM [inhibitor, partial curve]",
O=C1C2C3C=CC(C3)C2C(=O)N1CNc1ccc(O)cc1 (configuration not stated),"inconclusive: 3.55 µM [inhibitor, full curve, poor fit]",
Cc1cc(NC(=S)Nc2cccnc2)ccc1Br,"inconclusive: 39.8 µM [inhibitor, single point]",
Cc1nc2c(C(=O)N3CCOCC3)cnn2c(C)c1Cc1ccc(Cl)cc1,"inconclusive: 31.6 µM [inhibitor, partial curve]",
CCOC(=O)C1CCN(c2ncnc3c2cnn3-c2ccc(OC)cc2)CC1,"inconclusive: 25.1 µM [inhibitor, partial curve]",
COC(=O)c1c(-c2cccc3ccccc23)csc1NC(=O)Cc1ccc(OC)c(OC)c1,"inconclusive: 39.8 µM [inhibitor, single point]",
O=C(CCN1C(=O)c2cccc3cccc(c23)C1=O)NCC1CCCO1 (configuration not stated),"inconclusive: 25.1 µM [inhibitor, partial curve]",
CC(C)c1ccc(CN(C(=O)/C=C/c2ccco2)C2CCS(=O)(=O)C2)cc1 (configuration not stated),"inconclusive: 28.2 µM [inhibitor, single point]",
CC(C)C(=O)Nc1cccc(-c2cn3ccccc3n2)c1,"inconclusive: 31.6 µM [inhibitor, partial curve]",
COc1ccc(/C=N/Nc2ncnc3c2[nH]c2ccccc23)c(OC)c1OC,"inconclusive: 28.2 µM [inhibitor, partial curve]",
Cc1cc(C)nc(SCC(=O)Nc2ncccn2)n1,,inactive: 2.62%
COc1ccc(-c2c[n+]3c4n2CCCCC4=C(c2ccc(Br)cc2)C3)cc1,"inconclusive: 35.5 µM [inhibitor, single point]",
COc1cc(OC)c(C2=NOC(C(=O)Nc3c(C)nn(CC(=O)N4CCCC4)c3C)C2)cc1Cl (configuration not stated),"inconclusive: 39.8 µM [inhibitor, single point]",
COc1cc(SC)ccc1C(=O)N1CCN(c2ccc(O)cc2)CC1,"inconclusive: 35.5 µM [inhibitor, single point]",
O=C1SCC(c2ccccc2)=NN1Cc1ccccc1,,inactive: -17.1%
COCCNc1nc(-c2cc(-c3ccccc3)on2)cc(C(C)C)n1,"inconclusive: 31.6 µM [inhibitor, single point]",
CCCSc1nc(-n2ncc(C#N)c2N)c2c3c(sc2n1)CCC(C)C3 (configuration not stated),"inconclusive: 39.8 µM [inhibitor, single point]",

Compound,Potency,"activity change, negative = inhibition"
CCN1CCN(c2ccc(S(=O)(=O)N3CCCC3)cn2)CC1,"inconclusive: 35.5 µM [inhibitor, single point]",
COc1ccc(C(=O)N(CCCO)Cc2cc3c(C)ccc(C)c3[nH]c2=O)cc1OC,"inconclusive: 31.6 µM [inhibitor, single point]",
CC1=NN(c2nc(-c3ccc(F)cc3)cs2)C(=O)C1,,inactive: -0.819%
O=C(Oc1ccc(N(Cc2cccs2)C2=NS(=O)(=O)c3ccccc32)cc1)c1ccc(Cl)cc1,"inconclusive: 7.94 µM [inhibitor, full curve]",
O=C(Nc1nnc(-c2ccco2)o1)c1ccc(Cl)cc1,"inconclusive: 31.6 µM [inhibitor, single point]",
COc1ccc2c(c1)CCN=C2Cc1ccc(OC)c(OC)c1,"inconclusive: 35.5 µM [inhibitor, single point]",
COc1cc(NC(=O)c2cc(C)on2)cc(C(=O)Nc2cccc(C(F)(F)F)c2)c1,"inconclusive: 31.6 µM [inhibitor, single point]",
O=C(O)c1cc(N/N=C/c2ccc3c(c2)OCCO3)ccc1Cl,,inactive: -20.5%
COc1cc(CN2CCN(C(=O)CC(C)C)CC2)cc(OC)c1OC,"inconclusive: 39.8 µM [inhibitor, single point]",
CCn1cc(C(=O)NCc2ccco2)c(=O)c2cc(S(=O)(=O)N3CCCCCC3)ccc21,,inactive: -15.2%
COc1ccc(/C=C/c2cc(=O)c3cc(Cl)ccc3o2)cc1,"inconclusive: 28.2 µM [inhibitor, partial curve]",
CC(=O)Nc1ccc(-n2c(=O)c3ccccc3c3ccccc3c2=O)cc1,"inconclusive: 39.8 µM [inhibitor, single point]",
FC(F)(F)c1ccc(Cl)c(-n2c(-c3cc(-c4ccco4)[nH]n3)n[nH]c2=S)c1,,inactive: -15.9%
CCOC(=O)c1oc2nc3c(cc2c1N)CCCC3,"inconclusive: 31.6 µM [inhibitor, partial curve]",
O=C1CNC(=O)/C1=C\N1CCCCC1,,inactive: -0.535%
CCOC(=O)N1CCC(Nc2ncnc3c2cnn3-c2ccccc2)CC1,"inconclusive: 39.8 µM [inhibitor, single point]",
O=C(NCc1ccccc1Cl)c1cnn2cccnc12,"inconclusive: 28.2 µM [inhibitor, single point]",
CCOc1ccccc1Nc1nc(-c2sc(NC(=O)c3ccco3)nc2C)cs1,,inactive: -25.4%
O=C(NCCCc1ccccc1)Nc1ccccc1,"inconclusive: 39.8 µM [inhibitor, single point]",
Fc1ccc(CNC(=S)Nc2ccc(OC(F)F)cc2)cc1,,inactive: 0.0262%
Cc1cc2cc(CNC(=O)c3ccc(S(=O)(=O)N4CCCCC4)cc3)ccc2n1C,"inconclusive: 3.16 µM [inhibitor, partial curve]",
